Whole data set: some 33,000 sequences, median “E-score (-0.5 to 0.5)” near -0.053, cut for the highest 2% near 0.37. The list shows a part of the results.
What follows are sequences tested against Hap1 (UniProt P0CE41) (assay: PBM E-score (8-mer binding enrichment) (E-score (-0.5 to 0.5)); higher = stronger / more preferred TF binding; most listed sequences are background and not binding sites). Settings: protein concentration: 200 nM; construct: GST-DNA-binding domain.
Outline: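 Yeast transcription factors, full-length or as DNA-binding domains, were expressed with a GST tag using PURExpress in vitro transcription/translation. At about 100-200 nM they were applied to universal all-10-mer Agilent arrays, double-stranded by primer extension on fresh or once-stripped slides. Fluorescent anti-GST detected bound protein, and masliner normalised the scans. E-scores for ungapped eight-base words, pooled with reverse complements, came from the Universal PBM Analysis Suite.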

UniProt P0CE41, sequence (P0CE41 whole entry, the tested form may be a part): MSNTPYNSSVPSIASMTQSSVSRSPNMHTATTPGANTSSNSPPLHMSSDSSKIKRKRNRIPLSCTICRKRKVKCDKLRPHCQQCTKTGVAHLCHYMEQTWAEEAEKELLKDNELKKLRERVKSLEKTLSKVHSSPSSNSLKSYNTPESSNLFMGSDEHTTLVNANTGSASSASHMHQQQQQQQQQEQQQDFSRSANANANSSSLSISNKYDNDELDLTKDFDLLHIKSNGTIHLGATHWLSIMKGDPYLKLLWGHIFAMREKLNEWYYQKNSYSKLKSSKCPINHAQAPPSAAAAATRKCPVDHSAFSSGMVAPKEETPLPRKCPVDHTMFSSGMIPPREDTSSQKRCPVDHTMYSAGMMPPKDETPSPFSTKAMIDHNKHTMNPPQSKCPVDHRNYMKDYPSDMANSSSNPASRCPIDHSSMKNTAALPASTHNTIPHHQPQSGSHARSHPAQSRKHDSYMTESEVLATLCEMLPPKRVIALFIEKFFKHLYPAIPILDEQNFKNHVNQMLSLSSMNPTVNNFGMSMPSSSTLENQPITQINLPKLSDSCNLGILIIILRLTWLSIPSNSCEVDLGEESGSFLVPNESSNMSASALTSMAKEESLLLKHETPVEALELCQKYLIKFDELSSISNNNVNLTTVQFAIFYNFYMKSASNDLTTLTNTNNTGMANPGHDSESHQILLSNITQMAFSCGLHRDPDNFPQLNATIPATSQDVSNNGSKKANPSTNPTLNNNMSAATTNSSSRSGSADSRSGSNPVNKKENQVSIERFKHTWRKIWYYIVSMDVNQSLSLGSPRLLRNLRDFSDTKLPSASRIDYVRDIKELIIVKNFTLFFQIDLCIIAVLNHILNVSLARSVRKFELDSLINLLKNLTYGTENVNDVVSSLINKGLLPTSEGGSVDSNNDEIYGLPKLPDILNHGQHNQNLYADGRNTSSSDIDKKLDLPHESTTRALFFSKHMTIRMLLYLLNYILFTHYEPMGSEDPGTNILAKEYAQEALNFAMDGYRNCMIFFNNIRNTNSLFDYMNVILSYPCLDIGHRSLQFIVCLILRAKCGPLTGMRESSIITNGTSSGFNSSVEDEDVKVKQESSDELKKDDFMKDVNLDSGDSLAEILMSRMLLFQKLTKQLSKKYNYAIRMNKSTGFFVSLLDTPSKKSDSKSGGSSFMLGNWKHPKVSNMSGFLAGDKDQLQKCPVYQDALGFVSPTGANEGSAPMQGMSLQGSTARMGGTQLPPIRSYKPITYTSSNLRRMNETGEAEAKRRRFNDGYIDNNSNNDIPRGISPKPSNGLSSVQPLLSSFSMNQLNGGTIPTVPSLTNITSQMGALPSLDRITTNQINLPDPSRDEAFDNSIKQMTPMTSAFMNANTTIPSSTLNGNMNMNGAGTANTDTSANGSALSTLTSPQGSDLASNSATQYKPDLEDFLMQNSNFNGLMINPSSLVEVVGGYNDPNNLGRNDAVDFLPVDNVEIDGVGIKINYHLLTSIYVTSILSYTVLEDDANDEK

Row | Sequence | PBM E-score
1 | ATTGTGTG | -0.169
2 | ACCTCCGA | 0.391
3 | AGGTTTTG | -0.104
4 | CCCACACG | 0.109
5 | CACCCCCG | 0.193
6 | ACCGGTGA | 0.318
7 | GCCCTCCA | -0.236
8 | CCATTACG | -0.0522
9 | ATCTACCC | 0.123
10 | ACAACTCT | -0.18
11 | ACAACTGA | -0.239
12 | AAAGCAAT | -0.125
13 | AACACAAC | -0.115
14 | TGTCCTAA | -0.338
15 | AAATACCA | -0.044
16 | GAAGCTAC | -0.155
17 | AGAGTATC | -0.19
18 | GGCTTACA | -0.035
19 | AAGGGACA | -0.319
20 | TACGTATA | -0.234
21 | GGATGGCA | 0.064
22 | GGGGCGAA | 0.127
23 | GTACCGTA | 0.0486
24 | GGAAAACA | 0.139
25 | GATTGGGC | -0.00882

Row | Sequence | PBM E-score
26 | CTCTATCA | -0.226
27 | CAAACGTA | -0.118
28 | ACTGACCT | -0.162
29 | AGGCTACC | -0.16
30 | CAGTACGG | -0.0384
31 | ATGTTTTG | -0.128
32 | GCGTCAGC | -0.0136
33 | GCTTGCCC | -0.235
34 | CGCTATAC | 0.175
35 | GTCTCAGA | -0.179
36 | CGATAAAC | 0.2
37 | GATTAATA | 0.0465
38 | GGGGAATA | 0.107
39 | TAAAACAA | -0.157
40 | ATAACGAC | -0.0175
41 | ACCAGACC | 0.0586
42 | CCAACGAC | -0.205
43 | GAGAATTA | -0.00799
44 | ACCTCCGG | 0.454
45 | AGAATCCA | -0.115
46 | GTATGTTA | 0.0208
47 | AAGATATT | -0.0114
48 | CGACTCGC | 0.0452
49 | GATTAGTA | 0.101
50 | ACATATGT | -0.0834

Row | Sequence | PBM E-score
51 | AGCTCCCC | -0.093
52 | CGATCTGA | -0.104
53 | ACAGCGGC | 0.0335
54 | ACGGTGTC | 0.0373
55 | GACCGCTC | 0.113
56 | CTCTCCAG | -0.246
57 | AAACCCGT | 0.361
58 | CCGGCTTA | 0.342
59 | GATTCAGA | -0.19
60 | CCCTACAG | -0.258
61 | ATCTTCAC | 0.0153
62 | ACGCTTCA | -0.302
63 | AGGACAAA | -0.016
64 | GCGCGATA | 0.266
65 | TGCAGAAA | -0.086
66 | AAACCGCA | -0.0551
67 | GACCCTGA | -0.224
68 | CATCTATC | -0.00973
69 | TCGGGACA | 0.203
70 | AGTAGGTG | -0.134
71 | CACGTTCA | -0.197
72 | CCCGGTTC | 0.232
73 | AAATTGCA | -0.12
74 | ATTGAGTC | 0.0706
75 | AGTTGTCC | 0.152

Row | Sequence | PBM E-score
76 | GTCTACGA | -0.188
77 | CGGAACGA | 0.2
78 | GTCTAACA | -0.0178
79 | CCAATCCC | 0.0701
80 | CAACTCTC | -0.134
81 | AAGTTAAC | -0.0608
82 | CGTATGTC | -0.015
83 | ACTATCTC | 0.0547
84 | CAGTGCAA | -0.204
85 | GTTTCTAA | 0.105
86 | CAAATTTG | 0.141
87 | TACACCCA | -0.0325
88 | GGCGTTTA | 0.343
89 | GTTTACTA | -0.0613
90 | ATAAATTA | 0.0604
91 | GTTGACGA | -0.128
92 | CACCATAC | -0.112
93 | ACCAGTCA | -0.153
94 | GCTTCCCA | -0.178
95 | CTATCAAC | -0.00788
96 | TTAATGAA | -0.134
97 | CTATGCTA | -0.104
98 | ATATCGAT | -0.0219
99 | AAAGCTTC | 0.0623
100 | ATGTTGAC | 0.0672

Row | Sequence | PBM E-score
101 | GAGTCTAC | -0.0976
102 | CAGGGGGA | -0.381
103 | CCTTGCGC | -0.0225
104 | CCTACACG | -0.273
105 | ACAGCAGA | -0.116
106 | CCAAAGGG | -0.212
107 | GGACATCC | 0.248
108 | AAGCACTC | -0.0036
109 | GCGGAGCA | 0.211
110 | ACTCGTCT | -0.189
111 | AATTTCAC | -0.12
112 | ACATCTTA | -0.273
113 | CGCATAGC | -0.0115
114 | ACGAAGAT | -0.253
115 | ACACTGTC | -0.113
116 | CCCACGAC | -0.142
117 | TCGGGGAA | 0.305
118 | CGGGTTAG | 0.218
119 | AATTGAGC | -0.203
120 | CCAACTCC | 0.257
121 | GAGTGAGC | -0.171
122 | GGGAACAA | 0.201
123 | CTATTGGC | -0.0897
124 | CGAGGGAA | 0.00282
125 | AGTCCGCG | 0.297

Row | Sequence | PBM E-score
126 | AAGGTCAG | -0.291
127 | ACTGTACT | -0.221
128 | ATAATAGG | 0.0266
129 | ATCATGTC | -0.00168
130 | CAGAGGGG | -0.222
131 | CTCTATTA | -0.139
132 | AAGGCTAG | -0.198
133 | CGTTGGCC | 0.052
134 | ACCCTGTA | -0.0405
135 | CTATTTTA | -0.147
136 | ATCGTTAA | 0.0671
137 | CCAACAAG | -0.284
138 | AGTGGTCC | 0.0614
139 | CCTGGTAC | -0.172
140 | GTAATGTA | -0.162
141 | CGTTACAG | -0.0836
142 | GTTACACA | -0.229
143 | AGGGTTCA | -0.22
144 | CAAGATTC | 0.0843
145 | GAATCAGA | -0.0623
146 | AGATAGAC | -0.186
147 | ATATATGC | 0.113
148 | ACGCTTGG | -0.193
149 | CTGCTTGA | -0.294
150 | AGCTAACT | 0.0643

Row | Sequence | PBM E-score
151 | ACAGTATC | -0.246
152 | ATGAATAA | -0.153
153 | GACGGACC | 0.285
154 | AGGGAACT | -0.024
155 | GCTATGGA | 0.0313
156 | CGCGCATC | 0.0254
157 | CAAGGGCG | -0.0882
158 | ATCTGGGA | -0.104
159 | CTCCTTCC | -0.221
160 | ACGCAGAT | 0.235
161 | ACAAAGCC | 0.0502
162 | AGGTTCGA | -0.0833
163 | AATGATTG | -0.0237
164 | ATGTCAAC | -0.165
165 | AGGATCCG | 0.179
166 | TAAACACA | -0.231
167 | GGGTGACA | -0.0219
168 | TCCAGCAA | -0.351
169 | AGTCGGAA | 0.25
170 | CGGTTTAG | 0.203
171 | AGCAGAAT | -0.0408
172 | TCCTGAAA | -0.0582
173 | CCGTCCAC | 0.156
174 | AGGTTATC | -0.0123
175 | AGACTGTA | -0.085

Row | Sequence | PBM E-score
176 | ATCACGTC | -0.0726
177 | AATGAAAA | -0.0921
178 | ACTGTCGG | 0.234
179 | AATGGTGG | -0.174
180 | CTACGATA | -0.179
181 | GTGGCGCA | -0.239
182 | GCGTCGGA | 0.375
183 | ATAAAAGA | -0.129
184 | GCTCTAAA | -0.179
185 | CCTATTCC | 0.0975
186 | AGATCGGG | 0.153
187 | AATGGGCA | -0.136
188 | CGAAACCG | 0.222
189 | GCCACAGA | -0.0841
190 | CAACTATC | 0.0535
191 | CTGTGCAC | -0.199
192 | CAACAAGG | -0.189
193 | AAAAATGA | -0.143
194 | CTCCTGTC | -0.253
195 | ATAAGGAG | 0.126
196 | GCCGTTAC | 0.274
197 | CTCCATCA | 0.0253
198 | GGTGGCAC | -0.0146
199 | CCACCCAA | -0.106
200 | AATAACGG | 0.35

Row | Sequence | PBM E-score
201 | GACGATGC | -0.0394
202 | TCGCGAGA | 0.135
203 | AGCTACGG | 0.0744
204 | ACGCGCCA | -0.0585
205 | AGTCAAGC | -0.178
206 | CAAAGGAC | -0.296
207 | ATTTTTAA | 0.183
208 | CGATGGTA | -0.104
209 | GCAACACC | 0.0957
210 | TCGCAAAA | -0.117
211 | GGCGATAC | 0.265
212 | TCGCTCAA | -0.00285
213 | AATGATGA | -0.0667
214 | CTGGGATA | 0.0333
215 | AGAATTTA | -0.0441
216 | TCGTTTAA | -0.246
217 | TCGCGACA | 0.0706
218 | CCAGGGGA | -0.0689
219 | CTTACCGA | 0.0976

— the supplement of paper PMC3334620
